Laboratory results published in publication PMC4336329 (PLoS ONE, 2015).
About 14,000 (4.5%) of roughly 310,000 compounds showed an effect of 50% or more. Effects have a minus sign here. The list shows a part of the results.

target: human ether-à-go-go-related gene (hERG) potassium channel (human, UniProt Q12809); experiment: primary screen, population patch clamp on CHO cells stably expressing hERG
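Also: peak tail current of the secondary pulse compared with the same well before compound.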

human ether-à-go-go-related gene (hERG) potassium channel, sequence (Q12809 whole entry, looked up): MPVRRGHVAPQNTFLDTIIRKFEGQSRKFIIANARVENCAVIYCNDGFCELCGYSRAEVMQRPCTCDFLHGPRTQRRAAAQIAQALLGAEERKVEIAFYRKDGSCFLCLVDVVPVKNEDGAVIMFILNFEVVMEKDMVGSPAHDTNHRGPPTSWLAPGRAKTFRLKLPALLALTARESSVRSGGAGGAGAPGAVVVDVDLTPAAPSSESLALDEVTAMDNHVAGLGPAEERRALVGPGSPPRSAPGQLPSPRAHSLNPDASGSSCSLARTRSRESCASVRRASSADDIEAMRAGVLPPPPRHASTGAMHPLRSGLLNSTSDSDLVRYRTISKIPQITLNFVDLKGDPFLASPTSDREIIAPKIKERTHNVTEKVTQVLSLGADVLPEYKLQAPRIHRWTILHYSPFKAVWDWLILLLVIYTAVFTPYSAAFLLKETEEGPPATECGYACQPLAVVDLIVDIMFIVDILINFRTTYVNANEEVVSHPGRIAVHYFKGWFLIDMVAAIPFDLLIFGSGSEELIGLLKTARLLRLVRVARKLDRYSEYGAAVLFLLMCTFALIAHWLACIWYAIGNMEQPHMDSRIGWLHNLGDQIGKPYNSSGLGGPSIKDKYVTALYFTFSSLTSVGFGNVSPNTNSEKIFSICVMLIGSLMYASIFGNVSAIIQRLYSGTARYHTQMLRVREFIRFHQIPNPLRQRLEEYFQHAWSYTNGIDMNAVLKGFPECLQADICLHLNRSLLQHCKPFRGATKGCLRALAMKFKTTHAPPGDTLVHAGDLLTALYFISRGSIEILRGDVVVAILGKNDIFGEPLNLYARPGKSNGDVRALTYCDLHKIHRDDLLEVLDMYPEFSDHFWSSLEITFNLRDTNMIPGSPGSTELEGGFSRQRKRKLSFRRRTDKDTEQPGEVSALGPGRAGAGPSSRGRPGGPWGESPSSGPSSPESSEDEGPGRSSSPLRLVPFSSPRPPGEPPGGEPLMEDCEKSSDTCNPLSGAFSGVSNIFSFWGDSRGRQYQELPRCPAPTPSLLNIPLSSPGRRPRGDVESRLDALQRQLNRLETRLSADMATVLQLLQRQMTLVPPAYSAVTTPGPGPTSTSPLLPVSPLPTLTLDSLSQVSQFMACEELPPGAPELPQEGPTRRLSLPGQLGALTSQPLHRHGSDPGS

SMILES | hERG current change (%, negative = inhibition) at 10uM [%]
Cc1noc(C)c1S(=O)(=O)N1CCC(C(=O)N2CCN(Cc3ccc4c(c3)OCO4)CC2)CC1 | -22.3
Cc1ccc(C)c(-n2c(Cc3cc(=O)[nH]c(=O)[nH]3)nnc2SC(C)C)c1 | 1.98
COc1ccc(OC)c(NC(=O)CCn2cccc2)c1 | 4.08
COc1ccc(OC)c(C2/C(=C(/O)c3cnn(-c4ccccc4)c3C)C(=O)C(=O)N2CCN(C)C)c1 (stereo not drawn) | 20.1
CCn1c(=O)cc(O)c2c(=O)n(C)c(=O)n(C)c21 | 9.61
S=C(NCc1ccco1)Nc1ccccc1Cl | -52
c1ccc(SCc2nc(-c3ccncc3)no2)cc1 | -6.64
OCCCNc1nc(-c2ccccc2)nc2c1oc1ccccc12 | -9.08
CC(C)(C)NC(=O)N1CCn2cccc2C1c1ccccc1F (stereo not drawn) | 0.239
O=C(c1ccco1)N1N=C(c2ccncc2)CC1(O)C(F)(F)F (stereo not drawn) | -4.02
O=C1NCCN1Cc1ccccc1F | -0.688
NC(=O)C1=C[C@@H](c2ccccc2)C[C@@H](OCCCCO)O1 | 5.53
CN(C)Cc1cc(C(C)(C)C)cc(C(C)(C)C)c1O | 2.44
Cc1cccn2cc(-c3cc4ccccc4oc3=O)nc12 | 10.3
CC1CCc2c(sc(NC(=O)C3=COCCO3)c2C(N)=O)C1 (stereo not drawn) | 11.1
COc1ccc(S(=O)(=O)N2CCN(c3ccc(C)cc3C)CC2)cc1OC | 5.72
Cc1ccc(S(=O)(=O)N2CCCCC2)cc1NC(=O)COC(=O)Cc1c(F)cccc1Cl | -0.979
CCCCOc1ccc(C(=O)NCc2ccncc2)cc1 | 1.76
CC(=O)N1N=C(c2ccncc2)OC12CCCCCC2 | -7.12
CC(=O)c1ccc(NC(=O)/C(=C\c2ccco2)NC(=O)c2ccco2)cc1 | -15.9
Cc1ccc(-c2nc3ccccc3[nH]2)cc1NC(=O)/C=C/c1ccco1 | -31.4
Cc1cccc(OCC(O)CNC(=O)c2ccccc2C(=O)O)c1 (stereo not drawn) | -21.2

SMILES | hERG current change (%, negative = inhibition) at 10uM [%]
CCc1cc2c(=O)c(-c3nc4ccccc4[nH]3)coc2c(CN2CCCCC2C)c1O (stereo not drawn) | -20.6
O=C(CN(CC1CCCO1)C(=O)CNS(=O)(=O)c1ccccc1)NCCc1ccccc1 (stereo not drawn) | 10.8
Cc1oc(S(=O)(=O)N2CCOCC2)cc1C(=O)Nc1ccc(F)cc1 | -6.29
CCC(=O)OCn1nnc2ccccc2c1=O | 15.3
COc1cc2c(cc1OC)C(c1ccc(OC)c(OC)c1OC)CC(=O)N2 (stereo not drawn) | 22.6
CCOc1ncccc1C(=O)OCC(=O)Nc1ccc(C(N)=O)cc1 | 12.6
COc1ccc(C2C(C(=O)N3CCN(c4ccccc4)CC3)c3ccccc3C(=O)N2C)cc1 (stereo not drawn) | -31.5
CCCN(CCC)CC(C)(C)NS(=O)(=O)c1ccc(Cl)cc1 | -17.1
O=C(NCCc1ccccc1)C1CC(=O)N(C2CCCCC2)C1 (stereo not drawn) | 19.7
O=c1[nH]c(=S)[nH]c2c1C(c1cc([N+](=O)[O-])c(N3CCOCC3)cc1N1CCOCC1)O2 (stereo not drawn) | 22
Cc1cccc(C2c3[nH]c4ccccc4c3CCN2C(=O)c2ccc(=O)[nH]c2)n1 (stereo not drawn) | 34.3
Cc1cc(C)n2nc(CC(=O)NC3CCCCCC3)nc2n1 | 5.03
COc1ccccc1-c1nnc(SCC(=O)N2CCCC2)o1 | 2.94
Cc1ccc(S(=O)(=O)NCCC(c2ccccc2)c2ccccc2)cc1C(=O)O | -0.741
COc1ccc(Oc2ccc(N/C=C3/CCCC3=O)cc2)cc1 | -6.26
O=C(CN1C(=O)C(=O)N(C2CCCC2)C1=O)Nc1ccc(N2CCOCC2)cc1 | 23.8
CC(C)c1cc(CNC(=O)CCc2nnc(CCCc3ccccc3)o2)on1 | 0.291
N#CCC(=O)Nc1ccc(C(=O)OCC(=O)N(Cc2ccccc2)C2CCS(=O)(=O)C2)cc1 (stereo not drawn) | 18.6
Cc1cc(C(=O)N2CCCC(CNS(=O)(=O)c3cccs3)C2)nn1C (stereo not drawn) | 15.7
O=C(Cn1nnc(-c2cccs2)n1)OC1CCCCC1 | -0.871
CCc1ccc(OCC(=O)N2CCN(c3ccccc3F)CC2)cc1 | 20.2
O=C(COc1cccc2ccccc12)NNC(=O)c1cccs1 | 5.36

SMILES | hERG current change (%, negative = inhibition) at 10uM [%]
O=C(NNC1CC(=O)N(c2ccc(Br)cc2)C1=O)c1ccccn1 (stereo not drawn) | -4.01
CCc1ccn2cc(-c3ccc4c(c3)OCO4)nc2c1 | -13.3
CCOc1ccc(NC(=S)NCCCN2CCOCC2)cc1 | 10.7
CCOC(=O)N1CCC(NC(=O)C2CCC(Cn3c(=O)[nH]c4ccccc4c3=O)CC2)CC1 (stereo not drawn) | -11.9
COCCNC(=O)C(c1ccc(C)cc1)N(C(=O)CCC(=O)Nc1ccccn1)c1ccc(F)cc1 (stereo not drawn) | -11.6
Cc1cccc2cc(C#N)c(N3CCCC3)nc12 | 13.2
CCOC(=O)C1CCN(S(=O)(=O)c2ccc3c(c2)N(C(C)=O)CCO3)CC1 | -67.2
CC1(C)CC(NC(=O)C2CCN(S(=O)(=O)c3ccc(F)cc3)CC2)CC(C)(C)N1 | 14
Cc1ccnc(NC(=O)CCC(=O)N(CC(=O)NC(C)(C)C)c2ccc(F)c(Cl)c2)c1 | 12.4
O=Cc1cn(CC(=O)N2CCCc3ccccc32)c2ccccc12 | 15
COc1ccc(Cc2noc(CN3CCN(C4CCc5ccccc5C4)CC3)n2)cc1OC (stereo not drawn) | -68.8
COc1ccc(-n2nc(C(=O)NCC(=O)N3CCCCCC3)c3ccccc3c2=O)cc1Cl | -16.9
Cc1ccc(C(=O)N/C(=C\c2ccco2)C(=O)NCCN2CCOCC2)cc1 | -23.2
CCC(C(=O)NCCN1CCN(C)CC1)n1c(C)c2cnn(-c3ccccc3)c(=O)c2c1C (stereo not drawn) | 11.1
CCOc1cc(NC(=O)C2CCCO2)c(OCC)cc1NC(C)=O (stereo not drawn) | 17.1
CCOC(=O)c1sc(N(Cc2ccccc2)C(=O)CSc2nnc(C3CC3)n2N)nc1C | -26.7
N#CCn1nnc(-c2ccc3c(c2)OCO3)n1 | -4.09
CCCN(CC(=O)Nc1ccc(C(N)=O)cc1)CC(=O)Nc1ccc(Cl)cc1Cl | 3.6
CN(C)C(CNc1ccc(C(N)=O)cc1[N+](=O)[O-])c1ccccc1 (stereo not drawn) | -0.959
COc1ccc(CNC(=O)[C@@H](NC(=O)C2CCN(C(=O)[C@@H](N)CC(C)C)CC2)C(C)C)cc1 | 18.8
O=C1CN(C(=O)c2ccccc2[N+](=O)[O-])C(c2ccccc2)c2cc(Br)ccc2N1 (stereo not drawn) | -66.5
CCOC12CC(C)(C)CC(C)(CC3=C1C(=O)CC(C)(C)C3)C2 (stereo not drawn) | -43.3

SMILES | hERG current change (%, negative = inhibition) at 10uM [%]
Cc1ccc(N(C(=O)c2cccs2)C2C=CS(=O)(=O)C2)cc1 (stereo not drawn) | -24.4
Cc1ccc(S(=O)(=O)N2CCN(CC(=O)N/N=C/c3ccc(Br)s3)CC2)cc1 | -49
Cc1nn(C(C)C(=O)c2cccc(Cl)c2)c(C)c1[N+](=O)[O-] (stereo not drawn) | 14
O=C(NNC(=S)Nc1ccccc1)c1ccco1 | -10.7
COc1cc(NC(C)CCc2ccccc2)cc(OC)c1OC (stereo not drawn) | 17.1
COc1ccc(CCCc2n[nH]c(=S)n2C)cc1C | 12.4
CCc1noc(C)c1C(=O)N(C)CC(=O)Nc1ccc(Cl)c(Cl)c1 | -14.1
CCn1c(SCC(=O)N2CC(C)OC(C)C2)nc2c([nH]c3ccccc32)c1=O (stereo not drawn) | 1.37
O=C(CC[NH+]1CCCCC1)c1ccccc1.[Cl-] | -4.89
Cc1cc(C(=O)COc2ccccc2[N+](=O)[O-])c(C)n1-c1cccc(S(=O)(=O)N2CCOCC2)c1 | -9.82
Cc1ccc(S(=O)(=O)N2CCCCC2CCNC(=O)C(=O)NCCc2ccco2)cc1 (stereo not drawn) | -33.1
O=C(O)c1ccccc1-c1ccccc1C(=O)Nc1nc2ccccc2s1 | 2.46
CCOc1cc(/C=C2/C(=O)ON=C2C)ccc1OCc1ccccc1F | 10.6
Cc1ccc(N(C)S(=O)(=O)c2cc(-c3cnc(C4CC4)o3)ccc2C)cc1 | 6.99
CN(CC(=O)Nc1ccc(Cl)cc1)C(=O)c1cccc(S(=O)(=O)N2CCN(Cc3ccccc3)CC2)c1 | 2.12
CCOc1ccccc1NC(=S)N1CCN(c2ccc(OC)cc2)CC1 | 19.3
Cc1ccc(CNC(=O)C23CN(Cc4ccccc4)CC2C(c2ccc([N+](=O)[O-])cc2)=NO3)cc1 (stereo not drawn) | -43.7
Cc1cc(NC(=O)CSc2ncn(-c3ccccc3)n2)no1 | 14
Cn1c(=O)cc(OCCCC(=O)N2CCC3(CC2)OCCO3)c2ccccc21 | -6.45
Cc1ccc(NC(=O)CNc2ccc(OC(C)C)cc2)cc1 | 4.51
CC(C)Nc1nnc(SCC(=O)c2c[nH]c3ccccc23)s1 | -4.42
